Experimental data from PubChem BioAssay AID1508623 (National Center for Advancing Translational Sciences (NCATS), 2021).
Screen size: about 48,000 compounds; about 450 (0.94%) were called active. Roughly 19% stayed inconclusive and do not appear here. The call rests on the fitted dose curve; in most records, active means well fitted inhibition curve with a large enough effect; inconclusive means small, poorly fitted or top-dose-only effect; inactive means no such curve, though single readings can be large or run the other way. The list shows a part of the results.

Assay: Primary qHTS for Identification of Small Molecule Inhibitors of Huntingtin Promoter Activity; further: nearly all actives have a fitted effect of over 50% in size
Details: HEK293 HTT promoter firefly luciferase reporter (activity 0% = vehicle and -100% = no light), 24 h; series mostly up to 57.5 µM; activity change, negative = inhibition: at the top concentration
Outline: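 Quantitative HTS used concentration series of up to 57.5 uM final on HEK293 luciferase reporter cells, 24 h at 37 degrees C. Readout was Dual-Glo firefly luminescence.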

Compound | activity change, negative = inhibition
COc1ccc(CNC(=O)CN(C)c2nn3c(=O)cc(C)nc3s2)cc1 | inactive: -11.3%
COc1ccccc1NC(=O)N1CC=C(c2c[nH]c3ccccc23)CC1 | inactive: -17%
CCOc1ccc(C(=O)NCCS(=O)(=O)N2CCN(c3cccc(Cl)c3)CC2)cc1 | inactive: -21.9%
Cc1ccc(-c2nnc(Nc3ccc(Cl)cc3)c3ccccc23)cc1S(=O)(=O)NCC1CCCO1 (stereo unspecified) | inactive: -27.5%
COc1ccc(C(=O)c2cn(Cc3ccccc3F)c3ccc(F)cc3c2=O)cc1 | inactive: -33.3%
COc1ccc(-c2[nH]c(-c3ccc(OC)c(OC)c3)nc2SCC(=O)Nc2ccccc2)cc1 | inactive: -20.4%
Cc1cccc(NC(=O)c2oc3ccc(S(=O)(=O)N4CCCCC4)cc3c2C)c1C | inactive: -21.1%
Cn1ccc2cc(S(=O)(=O)N3CCCN(C(=O)Nc4ccc(Br)cc4)CC3)ccc21 | inactive: -31.4%
CCOC(=O)c1ccc2c(c1)N(CC(=O)Nc1cc(F)ccc1F)C(=O)c1ccccc1S2 | inactive: -14.5%
O=C(NCCCN1CCN(c2ccc(F)cc2)CC1)c1cc2c(s1)-c1ccccc1OC2 | inactive: -28.4%
C[N+]1(C)[C@@H]2CC(OC(=O)[C@H](CO)c3ccccc3)C[C@H]1[C@@H]1O[C@@H]12 (stereo partly specified) | inactive: 12.6%
OCC(CO)N[C@H]1C[C@](O)(CO)[C@@H](O)[C@H](O)[C@H]1O | inactive: -5.77%
CSc1ccccc1NC(=O)C1=CC(c2ccc3c(c2)OCO3)=NS(=O)(=O)N1C | inactive: -24.5%
CC1=C(C(N)=O)C(c2cccc(C)c2)n2nc(-c3ccc(Cl)cc3)nc2N1 (stereo unspecified) | inactive: -8.42%
CCOC(CN1CCN(CC(C)C(=O)c2ccccc2)CC1)c1ccccc1 (stereo unspecified) | inactive: -10.3% [at 25.2 µM]
COc1ccc(NC(=O)c2c(NC(=O)COc3ccc(Cl)cc3)sc3c2CCCCC3)cc1 | inactive: 62.5%
Cc1cccc(-c2nc3cc(NC(=O)Cc4ccc(Cl)cc4)ccc3o2)c1 | inactive: -8.98%
CCN(C(=O)Cn1nc2c3cc(F)ccc3n(Cc3cccc(C)c3)cc-2c1=O)c1cccc(C)c1 | inactive: -2.48%
CCOC(=O)CCN(Cc1ccccc1)S(=O)(=O)c1csc(C(N)=O)c1 | inactive: -8.1%
COc1cc(OC)c(NC(=O)N2CCOc3ccc(C)cc32)cc1Cl | inactive: 0.976%
COc1ccc(Cn2nnc3c(=O)[nH]c(C4CCCN(C(=O)c5ccccc5Cl)C4)nc32)cc1OC (stereo unspecified) | inactive: -19.6%
N#Cc1cc2c(=O)n3ccccc3nc2n(-c2nnc(SCc3ccc(F)cc3)s2)c1=O | inactive: -5.54%
CC1CN(C(=O)CCC(=O)NCc2cccs2)c2ccccc2O1 (stereo unspecified) | inactive: -18.9%

Compound | activity change, negative = inhibition
COc1ccc(NC(=O)c2c(NCc3ccc(C)o3)sc3c2CCC(C)C3)cc1 (stereo unspecified) | inactive: -3.54%
Cc1ccc(S(=O)(=O)c2cn(C)c3cc(N4CCN(c5ccccc5)CC4)c(F)cc3c2=O)cc1 | inactive: -5.05%
CCOC(=O)N1CCc2c(sc3c2c(=O)n(Cc2ccccc2)c(=O)n3Cc2cccc(Cl)c2)C1 | inactive: -1.82%
COc1cc(NC(=O)C2=C(C)Nc3nnnn3C2c2ccc(SC)cc2)c(OC)cc1Cl (stereo unspecified) | inactive: -2.54%
CCOc1ccccc1NC(=O)C1CCN(S(=O)(=O)c2ccc(Br)cc2)CC1 | inactive: -9.41%
Cc1ccc(-n2nc(C(=O)N3CCCCC3C)c(=O)n(C)c2=O)cc1 (stereo unspecified) | inactive: 4.46%
Cc1nn(CCCC(=O)NCc2ccccc2)c(=O)c2c1sc1ccccc12 | inactive: 0.239%
O=C(NC1CC(=O)N(c2ccccc2)C1)C1CCCC1 (stereo unspecified) | inactive: -17.1%
Cc1ccc2c(c1)c(=O)c1ccccc1n2CCCC(=O)Nc1ccc(F)cc1F | inactive: -32%
COC(=O)c1ccc2nc(C)cc(Nc3ccc(O)cc3)c2c1 | inactive: -4.64%
COc1ccc(NC(=O)Cn2c(=O)n(-c3ccc(Cl)cc3)c(=O)c3c(C)c(C(=O)N(C)C)sc32)cc1Cl | inactive: 1.63%
COC(=O)c1cc(Cl)c(NC(=O)/C=C/c2ccc(Cl)cc2Cl)cc1OC | inactive: 5.46%
CCOC(=O)c1ccc(NC2=CC(c3ccc(Br)cc3)N(c3ccc(C(=O)OCC)cc3)C2=O)cc1 (stereo unspecified) | inactive: -6.34%
Cc1cccc(C2NC(=O)c3c(sc4c3CCN(C)C4)N2)c1O (stereo unspecified) | inactive: 42.5%
CCOC(=O)c1ccc(NC(=O)C(=O)NCc2ccco2)cc1 | inactive: 4.59% [at 11.5 µM]
COc1cccc(Cc2nc3ccccc3nc2SCC(=O)N2CCc3ccccc32)c1 | inactive: -12.1%
Cc1cccc(Oc2nc3c(C)cccn3c(=O)c2/C=C(\C#N)c2nc3ccccc3s2)c1 | inactive: 5.88%
O=S(=O)(c1ccccc1)c1nc(-c2cccc(Cl)c2)oc1NCc1ccccc1 | inactive: -7.21%
COc1ccc(Br)c2c1-c1nc(NC(=O)c3ccccc3SC)sc1C2 | inactive: -3.71%
COCCNC(=O)CSc1nnc(-c2ccc(OC)c(OC)c2)c(-c2ccc(OC)c(OC)c2)n1 | inactive: -13.6%
Cc1c(C(=O)NCCN(C)C)oc2c1-c1nn(Cc3ccccc3Cl)cc1CC2 | inactive: 6.04%
COc1ccccc1-c1c(C)nn2c(N3CCN(c4ccc(Cl)cc4)CC3)cc(C)nc12 | inactive: -9.44%
CCOC(=O)c1ccc(Nc2nc(C)cc(C)n2)cc1 | inactive: 5.19%
